The supplement of paper PMC11417369
± gives the standard deviation of the averaged measurements. The list shows a part of the results.

System: PfAP2-LT AP2 domain (GST-tagged)
Assay: gcPBM binding intensity (ln(normalized median fluorescence intensity)); higher = stronger DNA binding
Method in brief: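 An Agilent 4 × 180k array of primer-extended double-stranded 36-bp intergenic genomic probes, with negative controls, was incubated for 1 h with GST-tagged P. falciparum DNA-binding domains expressed in E. coli. Alexa488 anti-GST antibody detected bound protein, scanned at 488 nm. Binding intensity is the highest Masliner-normalised natural-log median intensity across replicate spots of either probe orientation.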

Row | Sequence | gcPBM binding intensity (ln)
1 | TATTTATTATAAAAATTGTATAAAATAATAATGCTC [GTGCAC_negctrl_site456] | 8.33 ± 0.4
2 | GTTATTAAAAACGGGTGTACACATATATAAATATAT [XGTACX_site1234] | 9.06 ± 0.48
3 | ACTTTTTTAATGTTACGTACACATAAATAATAATTA [XGTACX_site8092] | 8.71 ± 0.37
4 | TTTCACAAATGATATAGTACTTTTTATTATTAACAT [XGTACX_site7976] | 8.63 ± 0.42
5 | TTCATTCTATAAAACACACAAATATTTTTGTATCCC [CACACA_site6458] | 8.76 ± 0.57
6 | TTTTGTGATCTTACCACCTTTCATAATATTAATAAA [GTGCAC_negctrl_site360] | 8.49 ± 0.49
7 | ATAGAACAATTCAGAAGTACATAAAAAGAAAAATTT [XGTACX_site3015] | 8.8 ± 0.5
8 | TTGGATGATTAAGGGGGACACACGTTTATATATTTA [CACACA_site338] | 9.18 ± 0.2
9 | ATATATTTTAATGATACACACAAGAAATAAAATTAC [CACACA_site5671] | 8.88 ± 0.38
10 | ACAAATGAGATTATATGTACACATAACAAATTTACA [XGTACX_site3496] | 8.95 ± 0.49
11 | GTTACACCAACAAACACACACACACCGACACCCAAA [CACACA_site5361] | 10.1 ± 0.17
12 | AAATGTAAAATTTTATGTACATATATTTATATAATA [XGTACX_site3737] | 8.55 ± 0.44
13 | TTTATTTATTTAATTACACACGAACATATAACCATT [CACACA_site7952] | 8.9 ± 0.35
14 | ATGTTTTATAAAAGGCGTACACATATATTTAAGTAA [XGTACX_site6231] | 8.85 ± 0.37
15 | TAAAAAAAAAAAAAAGTACACACTTATAAAATATTA [CACACA_site872] | 8.56 ± 0.57
16 | ATATATTTTTTGAATACACACATATTATATGTAATA [CACACA_site1256] | 8.8 ± 0.31
17 | ATTATATACATATATATACACACGTAGTTTCTATTT [CACACA_site8697] | 8.97 ± 0.38
18 | TACTTTTTATTTTCTTGTACTTAATTGTCCAGATTT [XGTACX_site4334] | 8.75 ± 0.45
19 | ATATATATATATAAATGTACATTTTTCAATAGTTTT [XGTACX_site7449] | 9.18 ± 0.15
20 | TATAAATAAATAGATACACACATATATATAAATACA [CACACA_site155] | 9.11 ± 0.46
21 | CTTATTATTATATGGGTGCTCATATTTTTCTTTTTT [GTGCAC_site9723] | 8.87 ± 0.48
22 | ACAAACATTAGGGAAGCATGCAATATTTTTTTACAT [TGCATGCA_site372] | 8.97 ± 0.37
23 | TGTAGATTTTGTAACACACACATATATATACATATA [CACACA_site2405] | 9.13 ± 0.46

Row | Sequence | gcPBM binding intensity (ln)
24 | ATTCTTATTTAAAGGTGTACTCTTAAACAGATTTTA [XGTACX_site3526] | 8.52 ± 0.37
25 | CACCCCCACAGACACACACACACACCCACATATATA [CACACA_site365] | 10.54 ± 0.035
26 | ATTTTAATATAAAATACACACTACTATTATAAATAT [CACACA_site4917] | 8.61 ± 0.4
27 | GTACACATATAGTAATAATTTTATTATATTTTTTTG [CACACA_negctrl_site843] | 8.56 ± 0.47
28 | GGTCTTCTTAATATACTGCACTGTATACGTATATAA | 9.09 ± 0.4
29 | AGATTTAAATTTATATGTACATAATATGGGCGTATA [XGTACX_site6631] | 8.7 ± 0.39
30 | TTCATAAAATGATATTGTACAAATAAATAATAGTAT [XGTACX_site819] | 8.89 ± 0.46
31 | GCTTATATAAAAAGTTGTACAACCGAATCTTTTACA [XGTACX_site2119] | 8.74 ± 0.45
32 | AAAAAAAAAAAGCACACACACATATGAGTATATATA [CACACA_site4683] | 9.55 ± 0.27
33 | TAATATCATTTATGTAGTACTATAACAAGAACTATA [XGTACX_site3618] | 8.48 ± 0.37
34 | AATGTAAAAGTAAACACACACATATATAAATACATA [CACACA_site5386] | 9.46 ± 0.3
35 | TACACAAGCAGACACACACACATATATATATATATA [CACACA_site1270] | 10.42 ± 0.071
36 | GTACATAGATTGTACATACACACCTATATAAATATC [CACACA_site3225] | 9.13 ± 0.39
37 | AATATATGGTTCCATGATATTAAATTCAATTTAATG [CACACA_negctrl_site605] | 8.47 ± 0.35
38 | TTTTTTTTGTTCTATACAATTATAAAAATAAAATAT [XGTACX_negctrl_site53] | 8.19 ± 0.34
39 | GTATATATATATGTATATATTTTATTTTATTTTTAT [CACACA_negctrl_site1439] | 8.71 ± 0.45
40 | TATATATATAGACACACACACACATATATATATATA [CACACA_site9366] | 10.02 ± 0.042
41 | AGTTGTTTTAATAATGCATGTTATTTTATTTTAATA [TGCATGCA_site168] | 8.79 ± 0.45
42 | TAGATATATAGACACACACACATTAATACCTATATT [CACACA_site7605] | 9.64 ± 0.42
43 | TGTCATTTAATTTTTTGTACGAAAAAAACATATAAA [XGTACX_site4952] | 8.28 ± 0.3
44 | ACATATAATATATAATGTACAAAATTGTTAACAATA [XGTACX_site3798] | 8.96 ± 0.4
45 | GAAAGGATATATATATATATATATATAATACATTTC [GTGCAC_negctrl_site677] | 9.28 ± 0.47
46 | TATATATACATACATACACACATATATATATATATT [CACACA_site4110] | 9.295 ± 0.078

Row | Sequence | gcPBM binding intensity (ln)
47 | AATTAAAAAAAATACACACACACATACACATATATA [CACACA_site3298] | 9.94 ± 0.24
48 | CCAAAAAAAAAAAAAAGTACATAAAAACAAGAGAAT [XGTACX_site3037] | 8.94 ± 0.54
49 | CGTATTTATATAATTACACACCATATTATAATTATT [CACACA_site3760] | 8.84 ± 0.44
50 | AAGAGAAAAATATATACACACACATAAATATATACA [CACACA_site8573] | 9.57 ± 0.32
51 | AAGGGGTAAAGAAAAACACACAAAAAATAAAAATAT [CACACA_site361] | 9.04 ± 0.67
52 | GATGAAAATAGAAATACACACTAAAAAATAAAATTA [CACACA_site4764] | 8.85 ± 0.52
53 | GAAATAATTCGATGTGCATGTAACGTTTCCCCAAAG [TGCATGCA_site122] | 8.93 ± 0.3
54 | TGCATACTTTTGTAAGTGCATAAAATCGTACCATGC | 8.63 ± 0.26
55 | TTATTTTTCCGGAATAGTACATAGACGCAGATATAA [XGTACX_site6356] | 8.78 ± 0.38
56 | TAGAAGCATGGACACACACACATACATACCCATACA [CACACA_site4916] | 10 ± 0.45
57 | CTCAATGTTTGCGATACATGCAAAAATTTTTAGAAT [TGCATGCA_site165] | 8.64 ± 0.47
58 | TACATTTCATTGTAATCATAAAAAATAAAGAAAAAA [XGTACX_negctrl_site542] | 8.27 ± 0.42
59 | TCTATATCTTTCAACACACAAATTTTTTTTTCCATC [CACACA_site4238] | 8.78 ± 0.52
60 | AAAAAAAAAAAAAAAGTGCACAGTCGTTTTAAAAAA [GTGCAC_site9848] | 8.62 ± 0.7
61 | ATTAACTATCATAACACACACAGTAGACATATTTTT [CACACA_site1822] | 9.35 ± 0.29
62 | AAATCATTTAAGAACACACAAATATTTCCATTAAAT [CACACA_site6808] | 8.72 ± 0.51
63 | ATGCAAAGTTTATAAAGTACATAAGTCAAAATAAAA [XGTACX_site1441] | 8.85 ± 0.46
64 | CTTTTCTCCCTCCATAGTACAATTATAAAAATATAT [XGTACX_site3090] | 8.53 ± 0.36
65 | AAGATAATATTTTCTTGTACGCATGCACATACAAAT [XGTACX_site7181] | 8.88 ± 0.31
66 | ATATAATATTTATATGCACACTTTTCTATATATAAG [CACACA_site6100] | 8.81 ± 0.33
67 | TAAAATATTATTTATTTACACACCAATCTTCTTTTC [CACACA_site9320] | 8.73 ± 0.47
68 | TCGTATTTAAAATGTAGTACATAATTTGAAAAATAA [XGTACX_site5832] | 8.43 ± 0.43
69 | TAATGGTTATCACTAACATGCAGTAATATTATATAG [TGCATGCA_site176] | 8.64 ± 0.36

Row | Sequence | gcPBM binding intensity (ln)
70 | TTTTTTCTTTTTTTTTGTACATATAATATTTATGTT [XGTACX_site302] | 8.76 ± 0.46
71 | ATATATATATGTATATGTACATATATATGGTAACTC [XGTACX_site681] | 9.12 ± 0.4
72 | AAAAGAAAAAAAAAAAAAAAAAAAATTAAAATATAA [CACACA_negctrl_site17] | 8.19 ± 0.69
73 | AAAAAAAAAAAACACACACACAAATACAAATGGTAA [CACACA_site1720] | 9.92 ± 0.42
74 | AATACATATCAAAGCTGTACAAAGTAAATTTTACTT [XGTACX_site3525] | 8.83 ± 0.44
75 | AAGTTATTGATATATACACACAAATATAAATAATAT [CACACA_site6695] | 9.04 ± 0.42
76 | TTCAATAGGTATAATTGTACTTAATAATATATTGTT [XGTACX_site8363] | 8.61 ± 0.54
77 | TACTATTATAAATATGTGCACTTCAATAATATACTA | 8.77 ± 0.43
78 | CTTAGGTTAAAAGTGTGTACATAAAAACATATATAA [XGTACX_site2213] | 8.99 ± 0.46
79 | ATAAGAAAAAGACACACACACAAAAAAAAAAAAAAA [CACACA_site2828] | 9.26 ± 0.37
80 | TAAATAAATTATTTTCGTACTTATTTATTTTAATTA [XGTACX_site283] | 8.55 ± 0.45
81 | TTAAAGTAGAGAAAATGTACATTTTATTAACACAAT [XGTACX_site6369] | 8.86 ± 0.5
82 | AAATAAAAAACAGTGGCACACATTATGTATCCACCT [CACACA_site3756] | 8.98 ± 0.49
83 | AAAAAAAAAATATACACACACATATAAATATAAATA [CACACA_site7574] | 9.34 ± 0.42
84 | ATACATTCAATGAAATGTACGTTTATTTACAGAAGA [XGTACX_site2999] | 8.67 ± 0.41
85 | TACAGATACAGATACACACACACACCGAAATAAATA [CACACA_site4865] | 10.2 ± 0.43
86 | CTTTAAGTTATATGAAGTACAATTTAAAAAAATGAA [XGTACX_site358] | 8.37 ± 0.4
87 | TAAATTCCTACATACGCATGTACATTAAAATTTTAA [TGCATGCA_site215] | 8.87 ± 0.36
88 | AAAATAAAAAGAAAAAGAAAAAAGGGGGGGTAGGGG [CACACA_negctrl_site1048] | 9.88 ± 0.11
89 | TGTCATATTATAAATTGTACAAATAGTATAATTATT [XGTACX_site581] | 8.68 ± 0.4
